PubChem BioAssay AID1508623 (National Center for Advancing Translational Sciences (NCATS), 2021)
Among all 48,000 compounds or so, about 450 (0.94%) were called active. Not shown: some 19% with an inconclusive outcome. Calls come from the whole dose curve; as a rule, active = well fitted inhibition curve with a large enough effect; inconclusive = small, poorly fitted or top-dose-only effect; inactive = no such curve, though single readings can be large or run the other way. The list shows a part of the results.

Experiment: Primary qHTS for Identification of Small Molecule Inhibitors of Huntingtin Promoter Activity; note: nearly all actives have a fitted effect of over 50% in size
Settings: HEK293 HTT promoter firefly luciferase reporter (activity 0% = vehicle and -100% = no light), 24 h; series mostly up to 57.5 µM; activity change, negative = inhibition: at the top concentration
Method in brief: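 Quantitative HTS used concentration series of up to 57.5 uM final on HEK293 luciferase reporter cells, 24 h at 37 degrees C. Readout was Dual-Glo firefly luminescence.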
Potency is the fitted concentration of half-maximal effect.

SMILES	activity change, negative = inhibition	Potency
COc1ccc(N(CC(=O)N2CCN(c3cccc(OC)c3)CC2)S(=O)(=O)c2c(C)noc2C)cc1	inactive: -21.3%	–
O=C(Cn1c(=O)ccc2cc(S(=O)(=O)N3CCCC3)ccc21)NCc1ccc(F)cc1	inactive: -5.87%	–
COc1ccc(CCNC(=O)CSCc2nc(-c3ccc(OC)c(OC)c3)oc2C)cc1OC	inactive: -26.9%	–
COc1cc(OC)c(NC(=O)c2ccc3c(Cl)c4c(nc3c2)CCCC4)cc1Cl	inactive: -53.1%	–
CN1C(C)(C)CCCC1(C)C	inactive: 0.577%	–
COCCNc1ccc(-c2nc(-c3cccc(C)c3)no2)cc1[N+](=O)[O-]	inactive: 23.5%	–
CC1CCCN(C(=O)Cn2c(=O)n(CC3CCC(C(=O)NC(C)C)CC3)c(=O)c3sccc32)C1 (stereo not drawn)	inactive: -2.26%	–
Cn1c(-n2cccc2)c(-c2c(-c3ccc(F)cc3)[nH]c3c2c(=O)[nH]c(=O)n3C)c(=O)[nH]c1=O	inactive: 2.35%	–
COc1ccc(-n2ncc3c2ncn2nc(-c4ccc(Cl)cc4Cl)nc32)cc1	inactive: -15.5%	–
COc1cccc(OC)c1Cn1nnc2c(=O)[nH]c(C3CCN(C(=O)c4ccccc4)CC3)nc21	inactive: -13.3%	–
Cn1cc(-c2ccc3ncc(Cc4ccc5ncccc5c4)n3n2)cn1	inactive: -5.37%	–
CC1(C)Oc2ccc(C#N)cc2[C@@H](N2CCCC2=O)[C@@H]1O	inactive: 0.882%	–
CSc1ccc(CCNC(=O)c2ccc3c(c2)nc2n3CCOC2)cc1	inactive: 2.09%	–
CCOC(=O)c1c(NC(=O)c2nc(SC)ncc2Cl)sc(C)c1C	inactive: -6.97%	–
COc1cccc(-c2ccnc3[nH]n(-c4ccccc4)c(=O)c23)c1	inactive: 26.2%	–
Cc1ccc(-n2c(SCC(=O)N3CCC(C)CC3)nc3c([nH]c4ccccc43)c2=O)cc1	inactive: 31.1%	–
Cn1c(=O)n(CCCc2ccccc2)c(=O)c2c1nc1n2CCN1c1ccccc1	inactive: -4.89%	–
CCOC(=O)c1scc(-c2ccc(C)cc2)c1S(=O)(=O)Nc1ccc(F)c(F)c1	inactive: -28.4%	–
COc1ccc2c(c1)c(=O)c(C(=O)c1ccc(Cl)cc1)cn2CC(=O)Nc1ccc2c(c1)OCO2	inactive: -4.24%	–
CCN(Cc1ccccc1)C(=O)CCS(=O)(=O)c1ccc2c(c1)oc(=O)n2C	inactive: -22.5%	–
Cc1c(Cl)cccc1NC(=O)NCCOCCn1c(=O)oc2ccccc21	inactive: -26.3%	–
CCOC(=O)c1ccc(NC(=O)CN2C(=O)CC(c3ccc(C)c(C)c3)=Nc3ccccc32)cc1	inactive: 27.7%	–
CCOc1ccc(CCNC(=O)c2ccc3c(c2)N(Cc2cccc(Cl)c2)C(=O)c2ccccc2S3(=O)=O)cc1OCC	inactive: -22.6%	–
Cc1cc(-c2nc3ccccc3s2)ccc1NC(=O)c1cc(Cl)ccc1Cl	inactive: 11.4%	–

SMILES	activity change, negative = inhibition	Potency
Cc1sc(NC(=O)COc2ccc(C(C)(C)C)cc2)c(C(=O)OC(C)C)c1C	inactive: 1.26%	–
CCOc1cc(C2c3c(oc4ccccc4c3=O)C(=O)N2Cc2ccccc2Cl)ccc1O (stereo not drawn)	inactive: -11.5%	–
COc1cccc(NC(=O)C2CCN(S(=O)(=O)c3cc(-c4noc(C)n4)ccc3C)CC2)c1	–	active: 12600 nM
COc1cc(-c2noc(-c3cc(C)[nH]n3)n2)cc(OC)c1OC	inactive: 77.3%	–
CCn1cc(C(=O)N2CCN(c3ccccc3)CC2)c(=O)c2cc(S(=O)(=O)N3CCC(C)CC3)ccc21	inactive: -5.54%	–
Cc1onc(-c2c(Cl)cccc2Cl)c1C(=O)N[C@@H]1C(=O)N2[C@@H]1SC(C)(C)[C@@H]2C(=O)O	inactive: 5.21%	–
CCOc1ccc(NC(=O)c2cn3c4c(ccc(Cl)c4c2=O)OC(C)C3)cc1 (stereo not drawn)	inactive: -7.72%	–
CCN1CCN(C(=O)c2cnn(-c3cccc(C)c3)c2C2CCN(C(=O)OC(C)(C)C)CC2)CC1	inactive: 5.84%	–
COc1cccc(CNC(=O)c2cccn2-c2nnc(N3CCCC3)s2)c1	inactive: -9.18%	–
Cc1cc(NC(=O)Nc2ccc(N(C)C)cc2)c2cc(F)cc(F)c2n1	inactive: 0.759%	–
COc1ccc(NC(=O)N(Cc2ccco2)C2CCN(C(C)=O)CC2)c(OC)c1	inactive: -15%	–
COc1ccc(CNC(=O)C2CCN(S(=O)(=O)c3cn(C)cn3)CC2)cc1	inactive: -7.93%	–
Cc1cccc(C)c1NC(=O)CN(C)S(=O)(=O)c1ccc2c(c1)n(C)c(=O)c(=O)n2C	inactive: -11.1%	–
CCc1ccc(OCC(=O)NCC(c2ccc(OC)cc2)N2CCOCC2)cc1 (stereo not drawn)	inactive: -16.8%	–
CCSc1nc(=O)c2c(n1C)NC(=O)CC2c1ccc(O)cc1OC (stereo not drawn)	inactive: -6.93%	–
COc1ccc(-n2c(=O)c3sc4ccccc4c3n(Cc3ccccc3)c2=O)cc1	inactive: -9.07%	–
CC(=O)c1cccc(NC(=O)Cn2c(C)c3cnn(-c4ccccc4)c(=O)c3c2C)c1	inactive: -26.6%	–
Cc1ccc2c(CNC3CCC(C)CC3)c(C(=O)O)n(Cc3cccc(F)c3)c2c1 (stereo not drawn)	inactive: -9.59%	–
CCN(CC)CCNC(=O)c1ccc2c(c1)N(Cc1ccccc1)C(=O)c1ccccc1S2=O (stereo not drawn)	inactive: -20.1%	–
COc1cc(NC(=O)c2cc3nc(-c4ccccc4)cc(-c4ccccc4)n3n2)c(OC)cc1Cl	inactive: 5.38%	–
CC1CCN(c2nc3ccc(C(=O)NCc4ccc(Cl)cc4)cc3s2)CC1	–	active: 251 nM
COc1ccc(C2CC(=O)N(CC(=O)Nc3ccc(C(F)(F)F)cc3)c3ccccc3S2)cc1 (stereo not drawn)	inactive: -22.9%	–
COc1ccc(C(=O)Nc2ccc3nc(SCC(=O)N4CCOCC4)sc3c2)cc1	inactive: -4.22%	–
CCc1nn(CC(=O)NC2CC2)c(=O)c2cc3ccccc3n12	inactive: 33.1%	–

SMILES	activity change, negative = inhibition	Potency
COc1cccc(CNC(=O)c2c3c(nc4ccccc24)C(=O)N(C2CCCCC2)C3)c1	inactive: -13.4%	–
Cn1cc(C(=O)NCc2ccccc2)c(=O)c2cc(S(=O)(=O)N3CCCCCC3)ccc21	inactive: -5.28%	–
Cc1ccccc1Oc1nc2c(c(=O)n(C)c(=O)n2C)n1Cc1ccc(Br)cc1	inactive: -9.44%	–
COc1cc(OC)c(NC(=O)c2cc(S(=O)(=O)N3CCCC3)cn2C)cc1Cl	inactive: -7.98%	–
CC(NC(=O)CSc1n[nH]c(-c2ccccc2)n1)c1nc2ccccc2n1C (stereo not drawn)	inactive: -5.23%	–
CCCCc1ccc(Nc2ncnc3c2cnn3-c2ccc(C)cc2)cc1	inactive: -19.8%	–
CCC1CCCCN1C(=O)Cn1c(=O)n(CC2CCC(C(=O)NC)CC2)c(=O)c2sccc21 (stereo not drawn)	inactive: -1.59%	–
O=C(Nc1ccc(OC(F)(F)F)cc1)NC1COc2ccccc2C1 (stereo not drawn)	inactive: -6.76%	–
COC(=O)c1ccc(C(=O)OC)c(NC(=O)c2c(-c3ccccc3)c(-c3ccccc3)nn(C)c2=O)c1	inactive: -23%	–
Cc1ccc2c(c1)nc(SCC(O)c1ccc(Br)cc1)n2C (stereo not drawn)	inactive: -3.14%	–
COc1ccc(N2CCN(Cc3nc4c(c(=O)[nH]c(=O)n4C)n3Cc3ccccc3)CC2)cc1	inactive: -12.8%	–
Cn1c(=O)c2sccc2n2c(CCC(=O)NCc3ccccc3)nnc12	inactive: 4.27%	–
O=C(NCc1ccc(F)cc1)c1cc2c(s1)-c1ccccc1SC2	inactive: 1.29%	–
COc1cc2c(=O)n(CCC(=O)NCC3CCCO3)c(=O)n(CC(=O)Nc3c(C)cccc3C)c2cc1OC (stereo not drawn)	inactive: -10.9%	–
CCCCOC(=O)c1ccc(NC(=O)/C(C#N)=C/c2ccc(-c3ccccc3)o2)cc1	inactive: -24.2%	–
CCOc1ccc(CCNC(=O)C2Cc3ccccc3N2C(=O)CC)cc1OCC (stereo not drawn)	inactive: -5.25%	–
Cc1ccc(N(CC(=O)Nc2ccc(Br)c(C)c2)S(=O)(=O)c2cccs2)cc1	inactive: -26%	–
CCc1ccc(CNC(=O)Cc2c(C(=O)O)c(C)cn2C)cc1	inactive: -16.3%	–
CCc1nnc(SCc2nc(-c3ccccc3)oc2C)c2cc3sccc3n12	inactive: -9.49%	–
Cc1ccc(C)c(NC(=O)Cn2c(=O)n(Cc3cccs3)c(=O)c3cccnc32)c1	inactive: -27.6%	–
COc1ccc(-c2cn3nc(N4CCC(C(=O)Nc5cc(Cl)ccc5OC)CC4)sc3n2)cc1	inactive: 13%	–
CC(C)(C)OC(=O)N1CCC(c2c(C(=O)N3CCN(c4ncccn4)CC3)cnn2-c2ccc(F)cc2F)CC1	inactive: -0.846%	–
COc1ccc(OC)c(NC(=O)C(CCSC)NS(=O)(=O)c2cccs2)c1 (stereo not drawn)	inactive: 7.54%	–
COc1ccc(-c2nc(SCC(=O)N3CCC(C)CC3)n[nH]2)cc1	inactive: -10.4%	–

SMILES	activity change, negative = inhibition	Potency
Nc1c(C(=O)Nc2ccc(Cl)cc2F)sc2nc(-c3cccs3)ccc12	inactive: 38.6%	–
C[N+](C)(C)CCCCCC[N+](C)(C)C	inactive: -2.68%	–
COc1ccc(C(=O)Nc2ccc(C(=O)OCc3cc(=O)n4nc(C(C)C)sc4n3)cc2)cc1	inactive: 33.4%	–
Cc1ccc(Cl)cc1NC(=O)/C(C#N)=C\c1cn(Cc2ccc(F)cc2)c2ccccc12	inactive: -3.42% [at 11.5 µM]	–
CCOC(=O)c1c(S(=O)(=O)NCC(=O)NCc2ccc(C)cc2)c(C)n(C)c1C	inactive: 7.55%	–
Cc1ccccc1C(=O)Nc1ccc2nc(SCCOc3ccccc3)sc2c1	inactive: -18.7%	–
CC1C(=O)OC2C(O)C34C5CC(C(C)(C)C)C36C(OC(=O)C6O)OC4(C(=O)O5)C12O (stereo not drawn)	inactive: 7.75%	–
Fc1ccc(CNc2cc(-c3ccccc3)nc3nncn23)cc1	inactive: -27.2%	–
COc1ccc(-c2nn(-c3ccc(F)cc3F)c3c2cnc2ccc(F)cc23)cc1	inactive: 3.13%	–
N#Cc1ccccc1NC(=O)C(=O)NCC(c1cccnc1)N1CCN(c2ccccc2)CC1 (stereo not drawn)	inactive: -27.6%	–
Cc1cccc(C(=O)Nc2cccc(C(=O)OCc3cc(=O)n4nc(C5CC5)sc4n3)c2)c1	inactive: 6.48%	–
Cc1ccc(OCC(=O)Nc2ccc(-c3nc4ccc(C)cc4o3)cc2)cc1	inactive: 67.5%	–
CCOc1ccc(C(=O)Nc2ccc3nc(SCC(=O)N4CCOCC4)sc3c2)cc1	inactive: -24.7%	–
CCN1CCN(C(=O)c2ccc3c(c2)N(Cc2cc(C)ccc2C)C(=O)c2ccccc2S3(=O)=O)CC1	inactive: -17.1%	–
O=C(NCCc1ccccc1)c1cnc2sc(N3CCOCC3)nn2c1=O	inactive: 16.4%	–
CCOC(=O)c1c(C)oc2nc(C)nc(NCCc3ccc(S(N)(=O)=O)cc3)c12	inactive: -28.4%	–
CCCSCCCNC(=O)CN1C(=O)COc2ccc(S(=O)(=O)N3CCCCCC3)cc21	inactive: -21.7%	–
O=C(Nc1ccc(F)cc1F)C1CCCN1S(=O)(=O)c1cccc2nsnc12 (stereo not drawn)	inactive: -10.2% [at 11.5 µM]	–
CCCOc1ccc(CNC(=O)C2CCN(c3nn4c(=O)cc(C)nc4s3)CC2)cc1	inactive: -21.8%	–
COc1cc(CNCCSc2nnnn2C)ccc1OCc1c(F)cccc1Cl	inactive: -14.6%	–
Cc1cccc(-c2nnc(SCCC(=O)O)o2)c1	–	active: 251 nM
